Measurements published in PubChem BioAssay AID504333 (National Center for Advancing Translational Sciences (NCATS), 2011).
Hit rate of the full screen: of about 360,000 compounds, about 16,000 (4.4%) were called active. Inconclusive means that the source gave no clear call. Such entries were picked first, then a sample of the others. Calls come from the whole dose curve; as a rule, active = well fitted inhibition curve with a large enough effect; inconclusive = small, poorly fitted or top-dose-only effect; inactive = no such curve, though single readings can be large or run the other way. Potencies beside an inconclusive call are fits to weak or partial responses and may not hold up.

Molecular target: Bromodomain adjacent to zinc finger domain protein 2B (Homo sapiens) (UniProt Q9UIF8)
Chain of UniProt Q9UIF8 (Q9UIF8 whole entry, looked up, the tested form may be a part): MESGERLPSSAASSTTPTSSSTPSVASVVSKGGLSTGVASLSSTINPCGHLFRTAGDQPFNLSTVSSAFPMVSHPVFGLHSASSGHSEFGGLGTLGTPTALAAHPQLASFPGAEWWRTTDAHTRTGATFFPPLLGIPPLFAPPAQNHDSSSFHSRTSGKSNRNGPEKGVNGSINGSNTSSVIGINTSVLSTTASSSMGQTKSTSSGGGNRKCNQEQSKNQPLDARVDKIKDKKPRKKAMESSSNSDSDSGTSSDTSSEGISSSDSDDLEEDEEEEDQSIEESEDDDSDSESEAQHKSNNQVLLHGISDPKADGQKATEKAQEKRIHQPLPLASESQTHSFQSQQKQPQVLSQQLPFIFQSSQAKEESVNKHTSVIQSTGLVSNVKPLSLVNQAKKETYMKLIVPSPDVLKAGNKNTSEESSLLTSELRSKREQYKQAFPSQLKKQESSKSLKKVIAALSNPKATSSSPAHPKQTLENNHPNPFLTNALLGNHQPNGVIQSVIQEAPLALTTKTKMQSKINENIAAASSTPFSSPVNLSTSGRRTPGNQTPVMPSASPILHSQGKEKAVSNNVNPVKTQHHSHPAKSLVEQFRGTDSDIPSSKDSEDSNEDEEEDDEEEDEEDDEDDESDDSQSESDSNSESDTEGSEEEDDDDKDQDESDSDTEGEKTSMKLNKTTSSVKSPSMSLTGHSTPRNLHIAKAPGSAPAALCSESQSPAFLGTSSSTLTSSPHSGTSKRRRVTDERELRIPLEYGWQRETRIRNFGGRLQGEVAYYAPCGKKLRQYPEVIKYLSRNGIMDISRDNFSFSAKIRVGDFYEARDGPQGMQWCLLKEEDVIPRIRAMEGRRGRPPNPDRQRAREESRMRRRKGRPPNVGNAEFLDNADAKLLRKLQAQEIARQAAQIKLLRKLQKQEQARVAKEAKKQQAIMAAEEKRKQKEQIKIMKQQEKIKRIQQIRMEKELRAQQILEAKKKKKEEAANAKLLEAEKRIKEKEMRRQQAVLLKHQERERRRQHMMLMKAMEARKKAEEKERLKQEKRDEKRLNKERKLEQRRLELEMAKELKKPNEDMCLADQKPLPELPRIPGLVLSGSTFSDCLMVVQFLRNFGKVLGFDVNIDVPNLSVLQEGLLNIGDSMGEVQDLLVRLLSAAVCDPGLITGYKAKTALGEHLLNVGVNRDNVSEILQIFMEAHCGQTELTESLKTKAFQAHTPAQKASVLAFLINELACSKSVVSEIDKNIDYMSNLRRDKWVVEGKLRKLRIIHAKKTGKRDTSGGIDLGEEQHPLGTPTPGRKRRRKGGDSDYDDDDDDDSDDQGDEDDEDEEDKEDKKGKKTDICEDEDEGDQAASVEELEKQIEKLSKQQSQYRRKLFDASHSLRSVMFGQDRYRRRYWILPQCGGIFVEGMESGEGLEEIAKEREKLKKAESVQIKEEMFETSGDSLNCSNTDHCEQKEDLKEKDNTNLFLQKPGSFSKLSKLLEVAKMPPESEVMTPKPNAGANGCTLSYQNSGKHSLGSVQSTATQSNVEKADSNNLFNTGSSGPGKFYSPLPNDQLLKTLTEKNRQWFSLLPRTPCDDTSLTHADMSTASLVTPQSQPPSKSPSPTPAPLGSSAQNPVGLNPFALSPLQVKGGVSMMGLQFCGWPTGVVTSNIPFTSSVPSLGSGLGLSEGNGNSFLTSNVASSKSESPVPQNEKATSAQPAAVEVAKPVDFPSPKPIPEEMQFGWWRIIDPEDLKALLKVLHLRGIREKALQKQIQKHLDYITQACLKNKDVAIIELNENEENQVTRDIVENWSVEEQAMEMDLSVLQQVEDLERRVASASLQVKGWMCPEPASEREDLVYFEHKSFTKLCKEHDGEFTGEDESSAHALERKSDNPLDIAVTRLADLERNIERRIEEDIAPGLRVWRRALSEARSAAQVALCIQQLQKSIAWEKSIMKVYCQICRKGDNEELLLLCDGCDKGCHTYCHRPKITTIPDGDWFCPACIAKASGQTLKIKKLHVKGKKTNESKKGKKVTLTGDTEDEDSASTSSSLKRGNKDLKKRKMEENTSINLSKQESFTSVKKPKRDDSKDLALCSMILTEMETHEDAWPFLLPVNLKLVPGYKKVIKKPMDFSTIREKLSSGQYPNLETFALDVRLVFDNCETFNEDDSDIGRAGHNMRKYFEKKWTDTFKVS
Test: qHTS Assay for Inhibitors of BAZ2B; note: nearly all actives have a fitted effect of over 60% in size
Conditions: AlphaScreen BAZ2B-H3K14Ac peptide displacement; activity change, negative = inhibition: at 114 µM (top of the series)
How it was run: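 AlphaScreen luminescence quantifies BAZ2B engagement of H3K14Ac peptide; the protein and biotinylated peptide are both at 50 nM final, buffer PBS pH 7.4 with 0.01% Tween-20, all steps at room temperature.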
% is set by controls: 0 for no effect and ±100 for the full control effect; potency is the fitted concentration of half-maximal effect; tags give direction and shape of the fitted curve.

Compound	Potency	activity change, negative = inhibition
COc1ccc(-c2cc(C)no2)cc1S(=O)(=O)NCc1ccc(OC(C)C)cc1	inactive	–
Cc1ccc(CNC(=O)c2ccc(CS(=O)Cc3ccccc3Cl)o2)cc1 (stereo unspecified)	–	inactive: -20.3%
CCOC(=O)c1c(N2C(=O)CC(Sc3ccccc3C(=O)O)C2=O)sc(C)c1C (stereo unspecified)	active: 50.1 µM	–
COc1ccc(OC)c(C2CC(=O)c3c([nH]c(C(=O)OC4CCC(C)CC4)c3C)C2)c1 (stereo unspecified)	–	inactive: -31.4%
COc1ccccc1/C=N/Nc1nccnc1Cl	inconclusive: 8.91 µM [inhibitor, single point]	–
O=C1NC(=O)C2C1C(c1ccc([N+](=O)[O-])cc1)=NN2Cc1ccccc1 (stereo unspecified)	inconclusive: 50.1 µM [inhibitor, partial curve]	–
C=CCNc1nc(C(=O)OCC(=O)c2ccc(Cl)cc2)cs1	active: 35.5 µM	–
COc1ccc(/C=C2\SC(=NCc3ccccc3)N(Cc3ccccc3)C2=O)cc1OC	–	inactive: 9.43%
Cc1ccc2nc(SCC(=O)c3c[nH]c4ccccc34)[nH]c2c1	inconclusive: 89.1 µM [inhibitor, single point]	–
COC(=O)c1ccc(Cl)cc1NC(=O)N1CC(C)Oc2ccccc21 (stereo unspecified)	inconclusive: 79.4 µM [inhibitor, single point]	–
O=C(OC1CCOC1=O)C1CCN(S(=O)(=O)c2c(Cl)cccc2Cl)CC1 (stereo unspecified)	inconclusive: 100 µM [inhibitor, single point]	–
O=C(Nc1nnc(-c2cccs2)o1)c1cccc(Oc2ccccc2)c1	inconclusive: 89.1 µM [inhibitor, single point]	–
CCCc1cc(-c2ccc3c(c2)COc2c4ccccc4nn2-3)on1	inconclusive: 22.4 µM [inhibitor, full curve, poor fit]	–
O=[N+]([O-])c1cc([N+](=O)[O-])c(Oc2cc(Cl)ccc2Cl)cc1NC1CCCCCCC1	inconclusive: 28.2 µM [inhibitor, partial curve]	–
COc1ccc(C(=O)COC(=O)Cc2c[nH]c3ccccc23)c(OC)c1	inconclusive: 44.7 µM [inhibitor, partial curve]	–
Cc1ccc(-c2csc3ncn(CC(=O)OC(C)C)c(=O)c23)cc1	–	inactive: 0.282%
COc1cc(C(=O)N/N=C(\C)Cc2ccccc2)cc(OC)c1OC	–	inactive: -7.84%
COc1ccc(OC)c(C2CC(=O)N3CN(c4ccccc4F)CSC3=C2C#N)c1 (stereo unspecified)	active: 22.4 µM	–
O=C(Cn1c(=O)oc2ccccc21)NCc1cccc(Cl)c1	–	inactive: -0.339%
Cc1ccc(C(=O)CCc2ccc(N)cc2)cc1	inconclusive: 79.4 µM [inhibitor, single point]	–
COc1ccccc1NC(=O)c1c(NCc2sccc2C)sc2c1CCCCC2	active: 31.6 µM	–
O=C(Nc1sc2c(c1C(=O)O)CCCC2)c1ccccc1Cl	–	inactive: -1.91%
c1ccc(-c2nc(NCC3CCCO3)c3ccccc3n2)nc1 (stereo unspecified)	inconclusive: 89.1 µM [inhibitor, single point]	–
O=C1C2CCCCN2C(=O)N1CCCN1CCN(c2ccc(F)cc2)CC1 (stereo unspecified)	–	inactive: -3.37%

Compound	Potency	activity change, negative = inhibition
Cc1ccc(NS(=O)(=O)c2cccc(C(=O)OCC(=O)NCc3ccco3)c2)cc1	active: 56.2 µM	–
O=C(NC1CCN(C(=O)N2c3ccccc3Sc3ccccc32)CC1)c1ccccc1F	inconclusive: 50.1 µM [inhibitor, partial curve]	–
CCOc1ccc(N(CC(=O)NCc2ccco2)S(=O)(=O)c2ccc(OC)c(OC)c2)cc1	inconclusive: 56.2 µM [inhibitor, partial curve]	–
CCC1=NN(C(=O)c2ccccc2O)C(O)(c2ccccc2)C1 (stereo unspecified)	active: 50.1 µM	–
CN(C)CCCN(C(=O)CCSc1ccccc1)c1nc2cc3c(cc2s1)OCO3	inconclusive: 79.4 µM [inhibitor, partial curve]	–
CN(C(=O)c1cc(-c2ccccc2O)on1)c1ccccc1	–	inactive: -17%
C#CCOCCOCCOCCNc1nc(N2CCN(C(=O)[C@H](CCC(=O)O)n3cc(C(N)CO)nn3)CC2)nc(N2CCN(C(=O)[C@H](CCC(=O)O)n3cc(C(N)CO)nn3)CC2)n1 (stereo partly specified)	active: 14.1 µM	–
COC(=O)c1ccc(-c2cc(C(=O)O)c3cc4c(cc3n2)OCCO4)cc1	inconclusive: 79.4 µM [inhibitor, single point]	–
CCn1c(SCC(=O)NCc2ccco2)nnc1-c1cccs1	inconclusive: 56.2 µM [inhibitor, partial curve, poor fit]	–
O=C(Nc1nnc(C2CC2)s1)c1ccncc1	inconclusive: 89.1 µM [inhibitor, single point]	–
Cc1ccc(-c2c[n+](Cc3ccc(Cl)cc3)c3n2CCC3)cc1	–	inactive: -26.1%
O=C(Nc1nccs1)NC(C(F)(F)F)C(F)(F)F	–	inactive: -3.58%
CCOC(=O)C1=C(CSc2nc(C)ccc2C#N)OC(N)=C(C#N)C1c1cccc(OC)c1OC (stereo unspecified)	active: 56.2 µM	–
Cc1ccc(-c2cn(S(=O)(=O)c3cccc4nsnc34)nc2N)cc1	inconclusive: 39.8 µM [inhibitor, full curve]	–
COc1cc(OC)c(NC(=O)COCc2cc(-c3cccs3)on2)cc1Cl	–	inactive: 3.85%
Cc1ccc(S(=O)(=O)N2CCCCC2)cc1C(=O)NCCCN1CCOCC1	–	inactive: -16.5%
CC(=O)NCCc1nc2cc(NC(=O)c3ccccc3C)ccc2n1C	inconclusive: 15.8 µM [inhibitor, single point]	–
Cc1[nH]c2ccc(-c3n[nH]c(=S)n3C)cc2c1C	inconclusive: 89.1 µM [inhibitor, single point]	–
O=C(CSC1=Nc2ccccc2C2=NC(CC(=O)NCc3ccco3)C(=O)N12)NCc1ccco1 (stereo unspecified)	inconclusive: 89.1 µM [inhibitor, single point]	–
CC1=C(C(=O)Nc2ccc(CC(=O)NCc3ccc(OC(C)C)cc3)cc2)SCCO1	inconclusive: 56.2 µM [inhibitor, partial curve]	–
COc1ccc2cc3c(N)nn(C(=O)Cc4c[nH]c5ccccc45)c3nc2c1	inconclusive: 79.4 µM [inhibitor, partial curve]	–
CCOc1ccc(C(=O)NCC(=O)N2CCc3ccccc3C2)cc1OCC	–	inactive: 12.8%
COc1ccc2[nH]cc(C(O)CN3CCN(c4ccccc4F)CC3)c2c1 (stereo unspecified)	inconclusive: 50.1 µM [inhibitor, partial curve]	–
O=C(COC(=O)c1nc(Cl)ccc1Cl)c1ccc[nH]1	inconclusive: 89.1 µM [inhibitor, single point]	–

Compound	Potency	activity change, negative = inhibition
Cc1cccc(N2CCN(S(=O)(=O)c3ccc4c(c3)CCCN4C(=O)C3CCC3)CC2)c1C	inactive	–
Cc1cccc(-n2c(C)nc3cc(C(=O)NCc4ccc5c(c4)OCO5)ccc32)c1	inconclusive: 79.4 µM [inhibitor, single point]	–
COc1ccc(OCCNC(=S)Nc2cccc3ccccc23)cc1	inconclusive: 39.8 µM [inhibitor, full curve]	–
Cc1[nH]n(-c2ccccc2)c(=O)c1C(C[N+](=O)[O-])c1ccc(Cl)cc1 (stereo unspecified)	inconclusive: 50.1 µM [inhibitor, partial curve]	–
O=C(Nc1cc(Cl)ccn1)C1CCN(S(=O)(=O)c2cccs2)CC1	inconclusive: 89.1 µM [inhibitor, single point]	–
COc1ccccc1C(=O)Nc1cc2c(cc1N1CCCCC1)n(C)c(=O)n2C	inconclusive: 70.8 µM [inhibitor, single point]	–
CC(=O)C1=C(C)OC(N)=C(C#N)C1c1ccco1 (stereo unspecified)	inconclusive: 89.1 µM [inhibitor, single point]	–
CCCCn1c(/C=N/Nc2nc3ccccc3[nH]2)nc2ccccc21	inconclusive: 7.08 µM [inhibitor, full curve]	–
O=C(Nc1ccccn1)c1sc2cc([N+](=O)[O-])ccc2c1Cl	inconclusive: 50.1 µM [inhibitor, partial curve]	–
COc1cc2c3c(c1)/C(=C1/SC(=S)NC1=O)C(=O)N3C(C)(C)C=C2C	active: 44.7 µM	–
CC1CC(C)CN(CCCSc2ccccc2)C1 (stereo unspecified)	inconclusive: 89.1 µM [inhibitor, single point]	–
O=C(CSc1ncc2c(n1)-c1ccccc1N(Cc1ccc(F)cc1)S2(=O)=O)c1ccc(Cl)cc1	–	inactive: 1.3%
CC(C)c1ccc(/C=N/n2c(COc3ccccc3)n[nH]c2=S)cc1	inconclusive: 56.2 µM [inhibitor, partial curve]	–
Cc1nc2c(C#N)c[nH]n2c(=O)c1Cc1ccccc1	–	inactive: 3.59%
Cc1ccc(Cl)cc1NC(=O)N1CCN(C)c2ncccc21	inconclusive: 70.8 µM [inhibitor, single point]	–
CCc1ccc(C2NC(C(=O)O)CS2)cc1 (stereo unspecified)	inconclusive: 79.4 µM [inhibitor, single point]	–
CCCCn1c(C)cc2c(c1=O)C1O[C@](c3ccsc3)(Cc3ccccc31)O2	inconclusive: 11.2 µM [inhibitor, partial curve]	–
COc1ccccc1-c1noc(-c2ccc(N3CCN(c4ccccc4)CC3)c([N+](=O)[O-])c2)n1	–	inactive: -2.24%
O=C(Nc1ccc(F)cc1)C(Cc1ccccc1)n1cccc1 (stereo unspecified)	inconclusive: 44.7 µM [inhibitor, partial curve]	–
CN(C)c1ccc(C(=O)N2CCCC(CCC(=O)N3CCN(c4ccccn4)CC3)C2)cc1 (stereo unspecified)	–	inactive: -37.6%
COc1cc(/C=C/C(O)=C/C(=O)/C=C/c2ccc(O)cc2)ccc1O	inconclusive: 79.4 µM [inhibitor, single point]	–
CCCCN1Cc2c(nc3cc(-c4ccco4)[nH]n3c2=O)C1=O	inconclusive: 56.2 µM [inhibitor, partial curve]	–
CCCCCCCNC(=O)C1(CC2CC(c3cccc(Br)c3)=NO2)CCN(C(=O)OC(C)(C)C)CC1 (stereo unspecified)	–	inactive: 10.1%
